Measurements: paper PMC4336329 (PLoS ONE, 2015)
In all, about 310,000 compounds went through this assay and about 2,200 (0.71%) showed an effect of 50% or more. The effect is printed as a negative number. This is one part of the list.

Biological target: human ether-à-go-go-related gene (hERG) potassium channel (human, UniProt Q12809)
Assay: primary screen, population patch clamp on CHO cells stably expressing hERG

human ether-à-go-go-related gene (hERG) potassium channel, sequence (Q12809 whole entry, looked up): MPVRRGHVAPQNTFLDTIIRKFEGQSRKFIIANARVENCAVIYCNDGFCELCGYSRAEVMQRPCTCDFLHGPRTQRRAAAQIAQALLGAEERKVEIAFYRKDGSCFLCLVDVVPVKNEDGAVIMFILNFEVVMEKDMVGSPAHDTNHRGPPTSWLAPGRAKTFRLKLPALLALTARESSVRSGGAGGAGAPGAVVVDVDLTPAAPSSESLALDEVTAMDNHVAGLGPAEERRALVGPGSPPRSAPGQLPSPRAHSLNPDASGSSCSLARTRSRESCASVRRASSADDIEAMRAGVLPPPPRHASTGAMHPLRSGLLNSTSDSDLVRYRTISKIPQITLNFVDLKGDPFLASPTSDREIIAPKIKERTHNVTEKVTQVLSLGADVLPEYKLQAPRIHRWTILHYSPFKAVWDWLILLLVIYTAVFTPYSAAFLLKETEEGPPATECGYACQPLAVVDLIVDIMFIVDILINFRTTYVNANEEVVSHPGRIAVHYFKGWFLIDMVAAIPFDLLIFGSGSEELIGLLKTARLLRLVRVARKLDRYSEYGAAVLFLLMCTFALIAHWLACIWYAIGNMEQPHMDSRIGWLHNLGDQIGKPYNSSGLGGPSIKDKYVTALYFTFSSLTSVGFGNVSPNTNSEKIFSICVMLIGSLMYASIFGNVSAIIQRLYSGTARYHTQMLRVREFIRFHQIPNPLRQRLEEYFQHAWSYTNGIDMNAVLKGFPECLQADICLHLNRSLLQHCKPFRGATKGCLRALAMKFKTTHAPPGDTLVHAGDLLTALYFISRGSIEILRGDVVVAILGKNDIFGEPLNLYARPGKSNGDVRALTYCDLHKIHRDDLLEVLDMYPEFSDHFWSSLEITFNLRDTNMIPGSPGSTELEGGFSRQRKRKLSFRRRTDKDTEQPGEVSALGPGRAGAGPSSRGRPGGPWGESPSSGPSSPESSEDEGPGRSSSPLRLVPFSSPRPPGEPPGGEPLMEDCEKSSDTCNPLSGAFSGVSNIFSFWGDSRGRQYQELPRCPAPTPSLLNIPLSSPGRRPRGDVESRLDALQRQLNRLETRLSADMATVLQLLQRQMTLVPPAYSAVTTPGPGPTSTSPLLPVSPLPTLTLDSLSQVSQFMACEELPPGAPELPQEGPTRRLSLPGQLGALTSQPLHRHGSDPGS

Structure (SMILES)	hERG current change (%, negative = inhibition) at 1uM
CCN1CSC(=S)N(Cc2ccc(OC)cc2)C1	18.9%
Cc1ccc(C(=O)NCCOc2cccc(C)c2)cc1	12.7%
Cc1nc2cc(NC(=O)N3CCC(c4ccccc4)C3)ccc2n1C (stereo not drawn)	-23.2%
Cc1ccc(NC(=O)CN2C(=O)NC(C)(C3CC3)C2=O)c(C)c1 (stereo not drawn)	9.13%
CC(=O)c1ccc(NC(=S)NNC(=O)c2ccccc2[N+](=O)[O-])cc1	13.4%
O=C1C2CCCC1C([NH+]1CCCC1)CC2.[Cl-] (stereo not drawn)	6.99%
CC(=O)Nc1ccc(S(=O)(=O)N2CCN(c3nc4ccccc4n3CC(C)C)CC2)cc1	7.44%
CCCN(CCC)S(=O)(=O)c1ccc(C(=O)Nc2ccc(OCC(=O)N3CCOCC3)cc2)cc1	3.94%
COc1ccccc1-n1cnc2sc(-c3ccccc3)cc2c1=O	12.5%
O=C(CN1C(=O)NC2(CCOc3ccccc32)C1=O)c1ccc(F)cc1 (stereo not drawn)	3.75%
COCCSc1ccccc1C(=O)N1CCN(Cc2ccc3c(c2)OCO3)CC1	11.2%
Cc1cc(C)c(C)c(S(=O)(=O)N2CCN(C(=O)c3ccccc3OCc3c(C)noc3C)CC2)c1C	4.34%
Cc1ccc(C(=O)N/C(=C/c2ccc(-c3ccc([N+](=O)[O-])cc3)o2)C(=O)NCCCN(C)C)cc1	-78%
CCC(C)(C)c1ccc(Oc2ccc(NC(=O)COC(=O)C3=COCCO3)cc2)cc1	11.3%
COc1ccc(C(N)=O)cc1NC(=O)c1cccc(F)c1	8.83%
Cc1cc(C)c(C)c(S(=O)(=O)N2CCC(C(=O)N3CCCCCCC3)CC2)c1C	8.69%
CCN(C(=O)COC(=O)c1cc(S(=O)(=O)N2CCOCC2)ccc1F)C1CCS(=O)(=O)C1 (stereo not drawn)	14.4%
Cc1cc(NC(=O)c2ccccc2Cl)c(C(C)C)cc1O	4.82%
COc1ccc(-n2c(C)nnc2SCC(=O)Nc2ccccc2F)cc1	10.9%
COc1cc(/C=C(\C#N)C(=O)N2CCOCC2)ccc1OCc1ccccc1	18.5%
O=C(O)CSc1c2c(nc3cc(C(=O)Nc4cccc(C(F)(F)F)c4)ccc13)CCCC2	7.39%
COc1ccc(-n2nnnc2SCC(=O)Nc2cccc(C)n2)cc1OC	2.36%

Structure (SMILES)	hERG current change (%, negative = inhibition) at 1uM
CCOc1ccc(NC(=O)CN(C)C(=O)CSCc2ccc(C)cc2)cc1OCC	-1.27%
Cc1nc2ccc(-n3ccc(=O)cc3)cc2s1	17.5%
CCOC(=O)c1[nH]ncc1[C@@H]1C[C@H]2CN(Cc3cccc(Cl)c3)C(=O)[C@]23CCCN13	4.37%
Cc1ccn2c(NC3CCCC3)c(-c3cccs3)nc2c1.Cl	11.1%
COc1cc(-c2[nH]nc3c2C(c2ccoc2)C(C#N)=C(N)O3)cc(OC)c1OC (stereo not drawn)	-4.5%
Cl.NN=C(N)N	6.64%
O=C(Nc1ccc(Oc2ccc(Cl)cc2)cc1)c1ncn[nH]1	2.59%
CC(=O)N(C(C)=O)N1C(=O)C2C3c4ccccc4C(c4ccccc43)C2C1=O (stereo not drawn)	5.65%
COCCCNC(=S)NNC(=O)c1cc(-c2ccncc2)nc2ccccc12	6.61%
C=CCc1cc(Cl)ccc1OCCNCCN1CCOCC1.O=C(O)C(=O)O	5.59%
CCN(CC)C(=O)c1cccc2nc3ccccc3nc12	12.7%
O=C(NC1CCCC1)c1ccc(CSc2nc3ccncc3n2Cc2ccc(F)cc2)cc1	3.86%
COc1ccc(C)cc1NC(=O)CSc1nnc(COc2ccccc2)n1Cc1ccco1	7.89%
C[C@H](NC(=O)c1ccco1)C(=O)NCc1cccs1	9.92%
CCN(C(=O)c1ccc(Br)cc1)c1ccccc1	-1.75%
CCOc1ccccc1N1CN(C2CCCCC2)CNC1=S	11.8%
O=C1CCCC2=C1C1(O)C(=O)c3ccccc3C1(O)O2 (stereo not drawn)	5.1%
C/C(=N/NS(=O)(=O)c1ccc(C)cc1)c1c(O)c2ccccc2oc1=O	9.02%
Cc1ccccc1S(=O)(=O)Cc1ccc(C(=O)N(C)C2CCCCC2)o1	12.1%
O=C(CN1CCN(Cc2ccccc2Cl)CC1)N=Nc1c(O)[nH]c2ccccc12	-5.17%
CCn1c(=O)c(C(=O)NCc2ccccc2OC)c(O)c2ccccc21	13.4%
Cc1cc2c(c(SCC(=O)Nc3ccc(C)c(C)c3)n1)C(=O)OC2	12.1%

Structure (SMILES)	hERG current change (%, negative = inhibition) at 1uM
COc1ccc(C(=O)Nc2cc(=O)n(C)c(=O)n2C)cc1OC	20%
COc1ccc(NC(=O)Nc2ccccc2C(N)=O)cc1	14.6%
C/C=C/C(=O)OCC(=O)Nc1ccc(OC)c(Cl)c1	11.2%
Cc1cccc(N(Cc2cc3ccccc3[nH]c2=O)C(=O)c2cccs2)c1	16.4%
O=C(COC(=O)C12CC3CC(CC(C3)C1)C2)Nc1nc2c(F)c(F)c(F)cc2s1	18.5%
O=C1c2cccc3c(N4CCCCC4)ccc(c23)C(=O)N1c1ccccc1O	8.39%
COc1cc(NC(=O)NC(C)(C(F)(F)F)C(F)(F)F)cc(OC)c1OC	11.7%
O=C(O)CCCCNS(=O)(=O)/C=C/c1ccccc1	13%
O=C(O)c1ccc(-[n+]2c(-c3ccccc3)cc(-c3ccccc3)cc2-c2ccccc2)cc1.[O-][Cl+3]([O-])([O-])[O-]	15.1%
COc1ccccc1NS(=O)(=O)c1cccc2nsnc12	11.9%
CN(C(=O)COC(=O)c1cc2ccccc2cc1O)C1CCCCC1	13.8%
O=C(O)CCCC(=O)N1N=C(c2c(-c3ccccc3)c3cc(Cl)ccc3[nH]c2=O)CC1c1cccs1 (stereo not drawn)	8.21%
C#CCSc1ncc(S(=O)(=O)c2ccccc2)c(=O)[nH]1	6.68%
O=C(c1ccc(F)cc1F)C1CCN(c2ccc([N+](=O)[O-])cn2)CC1	5.79%
Cc1ccc(-c2nnc(N3CCN(C(=O)COc4cccc(C)c4)CC3)c3ccccc23)cc1	1.66%
CCCCCOc1ccc(OC(=O)c2ccncc2)cc1	13.6%
CC(=O)NCC(=O)N(Cc1ccco1)C1(C(=O)NC2CCCC2)CCCCC1	12.4%
CCc1ccccc1-n1c(SCC(=O)N2CCCC2)nc2[nH]ncc2c1=O	-0.685%
CCC(c1nnnn1Cc1ccc(OC)cc1)N(CCCO)Cc1cc2cc3c(cc2[nH]c1=O)OCO3 (stereo not drawn)	6.91%
CCNC(=O)NC(=O)C(C)OC(=O)CCCSc1nc2ccccc2s1 (stereo not drawn)	-5.32%
CC(C)(C)C1CCC(=NNS(=O)(=O)c2ccc(Br)cc2)CC1 (stereo not drawn)	9.03%
COc1ccc(N(CC(=O)Nc2c(C)cccc2C)S(=O)(=O)c2ccccc2[N+](=O)[O-])c(OC)c1	18%

Structure (SMILES)	hERG current change (%, negative = inhibition) at 1uM
Cc1cccc(NS(=O)(=O)c2ccc(C)c(C(=O)N(C)C)c2)c1	9.25%
O=C(Nc1cc(Cl)ccc1-n1cncn1)c1cc(F)cc(F)c1	6.11%
CCOc1ccc(NC2=NCC(=O)N2Cc2cccs2)cc1.Cl	2.41%
O=C(N/N=C/c1cc(Cl)ccc1O)C(=O)Nc1ccccc1OC(F)(F)C(F)F	2.44%
Cc1ccccc1-n1nnnc1SCC(=O)N(C)C1CCS(=O)(=O)C1 (stereo not drawn)	14.5%
FC(F)(F)c1ccccc1-n1c(CN2CCCCC2)n[nH]c1=S	-9.23%
Cc1ccc(NC2=C/C(=N/S(=O)(=O)c3cccs3)c3ccccc3C2=O)cc1	8.88%
Cc1cc(C)nc(N(C#N)C(C)C(=O)N(C)C)n1 (stereo not drawn)	13.4%
Cn1cccc1-c1cc(C(=O)N/N=C/c2cccc(O)c2)[nH]n1	12.1%
O=C(CSCc1ccc(Cl)cc1)N1CCN(Cc2ccc3c(c2)OCO3)CC1	-0.732%
Cc1c(CCOC(=O)C2C3CC4CC(C3)CC2C4)sc[n+]1CC(=O)c1ccc(Br)cc1.[Br-] (stereo not drawn)	2.4%
COCCCNC(=S)N/N=C/c1ccc2c(c1)OCO2	8.44%
Cc1cc(C)n2nc(/C(C#N)=C/c3ccccn3)c(C#N)c2n1	18%
O=C(Cc1ccc(F)cc1)N1CCN(c2ccc([N+](=O)[O-])cc2)CC1	-45.8%
COc1ccc(C(CNC(=O)c2ccc(C)o2)N2CCOCC2)cc1 (stereo not drawn)	-1.5%
COc1cccc(CNC(=O)COC(=O)c2cc([N+](=O)[O-])ccc2N2CCCC2)c1	-16.4%
COCCCNC(=S)N1CCN(C)CC1	-6.76%
COc1ccc(C2C3=C(CCCC3=O)Nc3nc(SCc4ccc(C(=O)O)cc4)nn32)cc1OC (stereo not drawn)	3.59%
Cc1cc(NC(=O)c2cc(-c3ccccn3)nc3ccc(Br)cc23)no1	14.1%
Cc1c(OCC(=O)C(C)(C)C)ccc2c3c(c(=O)oc12)CCCC3	15.3%
COc1cc2c(cc1OC)-c1nnnn1C(C)(C)C2	7.62%
